Measurements published in the supplement of paper PMC8728848.
The list shows a part of the results.

How the values were obtained:
Experiment in all cases: glycan array binding signal (z-score within array); higher = stronger binding
Conditions in all cases: glycan notation: IUPAC condensed, linker removed
[1] = target: Neu5Ac(a2-3)Gal(b1-3)GlcNAc(b1-3)GalNAc
Outline: (§1)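 The binding signal is a Z-score computed within each array. Data were drawn from 3228 arrays in the Consortium for Functional Glycomics database, restricted to those with a known protein sequence. Scores were averaged over arrays of the same protein sequence at different concentrations or buffers, and over linkers, and negative values can be taken as non-binding.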

[2] = target: Neu5Ac(a2-3)Gal(b1-3)GlcNAc6S
Outline: as §1

[3] = target: Neu5Ac(a2-3)Gal(b1-3)[Fuc(a1-4)]GlcNAc
Outline: as §1

[4] = target: Neu5Ac(a2-3)Gal(b1-3)[Fuc(a1-4)]GlcNAc(b1-3)Gal(b1-3)[Fuc(a1-4)]GlcNAc
Outline: as §1

[5] = target: Neu5Ac(a2-3)Gal(b1-3)[Fuc(a1-4)]GlcNAc(b1-3)Gal(b1-4)[Fuc(a1-3)]GlcNAc
Outline: as §1

[6] = target: Neu5Ac(a2-3)Gal(b1-3)[Neu5Ac(a2-3)Gal(b1-4)]GlcNAc
Outline: as §1

[7] = target: Neu5Ac(a2-3)Gal(b1-3)[Neu5Ac(a2-6)]GalNAc
Outline: as §1

Neu5Ac(a2-3)Gal(b1-4)Glc = target: Neu5Ac(a2-3)Gal(b1-4)Glc
Outline: as §1

[8] = target: Neu5Ac(a2-3)Gal(b1-4)GlcNAc
Outline: as §1

[9] = target: Neu5Ac(a2-3)Gal(b1-4)GlcNAc(b1-2)Man(a1-3)[GlcNAc(b1-2)Man(b1-4)GlcNAc(b1-2)Man(a1-6)]Man(b1-4)GlcNAc(b1-4)GlcNAc
Outline: as §1

[10] = target: Neu5Ac(a2-3)Gal(b1-4)GlcNAc(b1-2)Man(a1-3)[Neu5Ac(a2-6)Gal(b1-4)GlcNAc(b1-2)Man(a1-6)]Man(b1-4)GlcNAc(b1-4)GlcNAc
Outline: as §1

[11] = target: Neu5Ac(a2-3)Gal(b1-4)GlcNAc(b1-3)Gal
Outline: as §1

[12] = target: Neu5Ac(a2-3)Gal(b1-4)GlcNAc(b1-3)Gal(b1-3)GlcNAc
Outline: as §1

[13] = target: Neu5Ac(a2-3)Gal(b1-4)GlcNAc(b1-3)Gal(b1-4)GlcNAc
Outline: as §1

[14] = target: Neu5Ac(a2-3)Gal(b1-4)GlcNAc(b1-3)Gal(b1-4)GlcNAc(b1-3)Gal(b1-4)GlcNAc
Outline: as §1

[15] = target: Neu5Ac(a2-3)Gal(b1-4)GlcNAc(b1-3)Gal(b1-4)[Fuc(a1-3)]GlcNAc
Outline: as §1

[16] = target: Neu5Ac(a2-3)Gal(b1-4)GlcNAc(b1-3)GalNAc
Outline: as §1

[17] = target: Neu5Ac(a2-3)Gal(b1-4)GlcNAc(b1-6)[Gal(b1-3)]GalNAc
Outline: as §1

[18] = target: Neu5Ac(a2-3)Gal(b1-4)GlcNAc(b1-6)[Neu5Ac(a2-3)Gal(b1-3)]GalNAc
Outline: as §1

[19] = target: Neu5Ac(a2-3)Gal(b1-4)GlcNAc6S
Outline: as §1

[20] = target: Neu5Ac(a2-3)Gal(b1-4)[Fuc(a1-3)]GlcNAc
Outline: as §1

[21] = target: Neu5Ac(a2-3)Gal(b1-4)[Fuc(a1-3)]GlcNAc(b1-3)Gal
Outline: as §1

[22] = target: Neu5Ac(a2-3)Gal(b1-4)[Fuc(a1-3)]GlcNAc(b1-3)Gal(b1-4)GlcNAc
Outline: as §1

[23] = target: Neu5Ac(a2-3)Gal(b1-4)[Fuc(a1-3)]GlcNAc(b1-3)Gal(b1-4)[Fuc(a1-3)]GlcNAc(b1-3)Gal(b1-4)[Fuc(a1-3)]GlcNAc
Outline: as §1

[24] = target: Neu5Ac(a2-3)Gal(b1-4)[Fuc(a1-3)]GlcNAc(b1-3)GalNAc
Outline: as §1

[25] = target: Neu5Ac(a2-3)Gal(b1-4)[Fuc(a1-3)]GlcNAc(b1-6)[Gal(b1-3)]GalNAc
Outline: as §1

[26] = target: Neu5Ac(a2-3)Gal(b1-4)[Fuc(a1-3)]GlcNAc(b1-6)[Neu5Ac(a2-3)Gal(b1-3)]GalNAc
Outline: as §1

[27] = target: Neu5Ac(a2-3)Gal(b1-4)[Fuc(a1-3)]GlcNAc6S
Outline: as §1

[28] = target: Neu5Ac(a2-3)Gal6S(b1-4)GlcNAc
Outline: as §1

[29] = target: Neu5Ac(a2-3)Gal6S(b1-4)[Fuc(a1-3)]GlcNAc
Outline: as §1

Neu5Ac(a2-3)GalNAc = target: Neu5Ac(a2-3)GalNAc
Outline: as §1

[30] = target: Neu5Ac(a2-3)GalNAc(b1-4)GlcNAc
Outline: as §1

[31] = target: Neu5Ac(a2-3)[GalNAc(b1-4)]Gal(b1-4)Glc
Outline: as §1

[32] = target: Neu5Ac(a2-3)[GalNAc(b1-4)]Gal(b1-4)GlcNAc
Outline: as §1

[33] = target: Neu5Ac(a2-3)[GalNAc(b1-4)]Gal(b1-4)GlcNAc(b1-3)GalNAc
Outline: as §1

[34] = target: Neu5Ac(a2-3)[Neu5Ac(a2-6)]GalNAc
Outline: as §1

Neu5Ac(a2-6)Gal = target: Neu5Ac(a2-6)Gal
Outline: as §1

[35] = target: Neu5Ac(a2-6)Gal(b1-3)GlcNAc(b1-3)[Gal(b1-4)GlcNAc(b1-6)]Gal(b1-4)Glc
Outline: as §1

Neu5Ac(a2-6)Gal(b1-4)Glc = target: Neu5Ac(a2-6)Gal(b1-4)Glc
Outline: as §1

[36] = target: Neu5Ac(a2-6)Gal(b1-4)GlcNAc
Outline: as §1

[37] = target: Neu5Ac(a2-6)Gal(b1-4)GlcNAc(b1-2)Man(a1-3)Man(b1-4)GlcNAc(b1-4)GlcNAc
Outline: as §1

B1: Eosinophil cationic protein (ECP) (Homo sapiens), P12724 (protein)
chain: MVPKLFTSQICLLLLLGLMGVEGSLHARPPQFTRAQWFAIQHISLNPPRCTIAMRAINNYRWRCKNQNTFLRTTFANVVNVCGNQSIRCPHNRTLNNCHRSRFRVPLLHCDLINPGAQNISNCTYADRPGRRFYVVACDNRDPRDSPRYPVVPVHLDTTI
- glycan array binding signal (z-score) [1]: -0.26
- glycan array binding signal (z-score) [2]: -0.054
- glycan array binding signal (z-score) [3]: -0.048
- glycan array binding signal (z-score) [4]: -0.729
- glycan array binding signal (z-score) [5]: 1.1
- glycan array binding signal (z-score) [6]: -0.033
- glycan array binding signal (z-score) [7]: -0.097
- glycan array binding signal (z-score) (Neu5Ac(a2-3)Gal(b1-4)Glc): -0.018
- glycan array binding signal (z-score) [8]: -0.314
- glycan array binding signal (z-score) [9]: 0.247
- glycan array binding signal (z-score) [10]: 0.325
- glycan array binding signal (z-score) [11]: 0.316
- glycan array binding signal (z-score) [12]: -0.128
- glycan array binding signal (z-score) [13]: -0.305
- glycan array binding signal (z-score) [14]: -0.428
- glycan array binding signal (z-score) [15]: 0.75
- glycan array binding signal (z-score) [16]: -0.375
- glycan array binding signal (z-score) [17]: 0.24
- glycan array binding signal (z-score) [18]: -0.004
- glycan array binding signal (z-score) [19]: 0.087
- glycan array binding signal (z-score) [20]: -0.048
- glycan array binding signal (z-score) [21]: -0.244
- glycan array binding signal (z-score) [22]: -0.023
- glycan array binding signal (z-score) [23]: -0.251
- glycan array binding signal (z-score) [24]: 1.73
- glycan array binding signal (z-score) [25]: 1.99
- glycan array binding signal (z-score) [26]: 1.04
- glycan array binding signal (z-score) [27]: -0.138
- glycan array binding signal (z-score) [28]: -0.268
- glycan array binding signal (z-score) [29]: 0.109
- glycan array binding signal (z-score) (Neu5Ac(a2-3)GalNAc): -0.118
- glycan array binding signal (z-score) [30]: -0.029
- glycan array binding signal (z-score) [31]: -0.187
- glycan array binding signal (z-score) [32]: -0.243
- glycan array binding signal (z-score) [33]: -0.051
- glycan array binding signal (z-score) [34]: -0.286
- glycan array binding signal (z-score) (Neu5Ac(a2-6)Gal): -0.316
- glycan array binding signal (z-score) [35]: -0.216
- glycan array binding signal (z-score) (Neu5Ac(a2-6)Gal(b1-4)Glc): 0.151
- glycan array binding signal (z-score) [36]: -0.027
- glycan array binding signal (z-score) [37]: -0.443
